Data published in the supplement of paper PMC4967469.
By IC50 is meant the dose at which the fit gives 50% viability; where the fit passes the top or lowest dose, that dose stands as a limit. The AUC spans the tested range (256-fold, ending at the top dose) of the same fit; the more sensitive the line, the further below 1. For some of these results: The top dose, if marked as inferred, was calculated from the reported fits. For some of these results: An entry number marks a drug with two screens in the source, which often give different values.

Key:
Test in all cases: Viability of human cancer cell lines after 72 h of drug (GDSC screen)
Parthenolide = compound: C=C1C(=O)O[C@H]2[C@H]1CC/C(C)=C/CC[C@@]1(C)O[C@@H]21 [Parthenolide]; settings: top dose 5 µM
Protocol: (§1)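 Human cancer cell lines in 384-well plates, medium with 10% serum, drug for 72 h over a 256-fold dose range (nine 2-fold or five 4-fold steps up to the top dose). Adherent lines were fixed and stained with the nucleic acid dye Syto60, suspension lines read with resazurin; signal relative to control wells, capped at 0 and 100%. One two-parameter sigmoid per drug and line, fitted in a mixed model over all curves with the slope shared within a line.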

PAC-1 = compound: C=CCc1cccc(/C=N/NC(=O)CN2CCN(Cc3ccccc3)CC2)c1O [PAC-1]; settings: top dose 2.56 µM
Protocol: as §1

KIN001-135 = compound: COc1cc2ncn(-c3cc(OCc4ccccc4S(C)(=O)=O)c(C#N)s3)c2cc1OC [KIN001-135]; settings: top dose 5 µM; top dose inferred
Protocol: as §1

BMS-708163 = compound: NC(=O)[C@@H](CCC(F)(F)F)N(Cc1ccc(-c2ncon2)cc1F)S(=O)(=O)c1ccc(Cl)cc1 [BMS-708163]; settings: top dose 5 µM; screen: GDSC drug entry 1072; top dose inferred
Protocol: as §1

Cell Line | AUC (Parthenolide) | IC50 (Parthenolide) | AUC (PAC-1) | IC50 (PAC-1) | AUC (KIN001-135) | IC50 (KIN001-135) | AUC (BMS-708163) | IC50 (BMS-708163)
LU-165 (small cell lung carcinoma, suspension) | 0.988 | > 5 µM | 0.887 | > 2.56 µM | 0.985 | > 5 µM | 0.988 | > 5 µM
LXF-289 (lung adenocarcinoma, adherent) | 0.963 | > 5 µM | 0.987 | > 2.56 µM | 0.986 | > 5 µM | 0.977 | > 5 µM
MC116 (B-cell lymphoma, suspension) | 0.999 | > 5 µM | 0.853 | 1.15 µM | 0.997 | > 5 µM | 0.999 | > 5 µM
MC-CAR (haematopoietic neoplasm, suspension) | 0.969 | > 5 µM | 0.812 | 1.19 µM | 0.989 | > 5 µM | 0.966 | > 5 µM
MDST8 (large intestine, adherent) | 0.984 | > 5 µM | 0.975 | > 2.56 µM | 0.985 | > 5 µM | 0.987 | > 5 µM
ME-1 (acute myeloid leukaemia, suspension) | 0.973 | > 5 µM | 0.772 | 1.06 µM | 0.982 | > 5 µM | 0.955 | > 5 µM
MEG-01 (chronic myeloid leukaemia, suspension) | 0.957 | > 5 µM | 0.956 | > 2.56 µM | 0.986 | > 5 µM | 0.988 | > 5 µM
MFH-ino (soft tissue, adherent) | 0.933 | > 5 µM | 0.983 | > 2.56 µM | 0.96 | > 5 µM | 0.978 | > 5 µM
MFM-223 (breast, adherent) | 0.989 | > 5 µM | 0.988 | > 2.56 µM | 0.984 | > 5 µM | 0.986 | > 5 µM
MHH-PREB-1 (B-cell leukaemia, suspension) | 0.849 | 3.17 µM | 0.905 | > 2.56 µM | 0.984 | > 5 µM | 0.978 | > 5 µM
ML-2 (acute myeloid leukaemia, suspension) | 0.909 | > 5 µM | 0.85 | 1.63 µM | 0.966 | > 5 µM | 0.99 | > 5 µM
MLMA (hairy cell leukaemia, semi-adherent) | 0.855 | 4.04 µM | 0.948 | > 2.56 µM | 0.975 | > 5 µM | 0.981 | > 5 µM
MN-60 (B-cell leukaemia, suspension) | 0.984 | > 5 µM | 0.973 | > 2.56 µM | 0.988 | > 5 µM | 0.988 | > 5 µM
MOLM-13 (acute myeloid leukaemia, suspension) | 0.853 | 3.54 µM | 0.884 | 2.47 µM | 0.945 | > 5 µM | 0.984 | > 5 µM
